Laboratory results as given in PubChem BioAssay AID1508623 (National Center for Advancing Translational Sciences (NCATS), 2021).
In all, about 48,000 compounds went through this assay and about 450 (0.94%) were called active. Not shown: some 19% with an inconclusive outcome. Calls come from the whole dose curve; as a rule, active = well fitted inhibition curve with a large enough effect; inconclusive = small, poorly fitted or top-dose-only effect; inactive = no such curve, though single readings can be large or run the other way. Some of the results follow.

Test: Primary qHTS for Identification of Small Molecule Inhibitors of Huntingtin Promoter Activity; note: nearly all actives have a fitted effect of over 50% in size
Conditions: HEK293 HTT promoter firefly luciferase reporter (activity 0% = vehicle and -100% = no light), 24 h; series mostly up to 57.5 µM; activity change, negative = inhibition: at the top concentration
Summary of the method: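 HEK293 cells carrying firefly luciferase reporters were seeded at 2,500 per well in Opti-MEM and cultured for 24 h. They were then treated with compounds at up to 57.5 uM final for 24 h at 37 degrees C before Dual-Glo luminescence readout.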

Compound | activity change, negative = inhibition
CC(C)C(=O)Nc1nnc(S(=O)(=O)N(C)Cc2ccc(F)cc2)s1 | inactive: -3.65%
COc1ccc(NC(=O)C2CCN(S(=O)(=O)c3cn(C)cn3)CC2)cc1Cl | inactive: -11.8%
O=C(c1ccc([N+](=O)[O-])cc1)N(Cc1ccco1)c1ccccn1 | inactive: -7.88%
CC(=O)OCc1cnc(C)c2oc(=O)c(C(=O)Nc3cc(F)ccc3C)cc12 | inactive: -6.68%
NC(=O)CN1C(=O)C2(SCC(=O)N2c2cccc(F)c2)c2ccccc21 (centres undefined) | inactive: -0.0728%
COc1ccc(C2C(C(=O)Nc3ccc(C)cc3C)=C(C)Nc3nc(SC)nn32)cc1OC (centres undefined) | inactive: -14.9%
CCCCn1c(=O)c2oc3ccccc3c2n(Cc2ccc(OC)cc2)c1=O | inactive: -12.1%
Cc1cc(C)cc(NC(=O)c2cn3c4c(ccc(Cl)c4c2=O)OC(C)C3)c1 (centres undefined) | inactive: -6.93%
CCOc1ccc(OCCOCCn2c(-c3ccc(Cl)cc3)nc3ccccc3c2=O)cc1 | inactive: -13.8%
Cc1cccc(-c2nc(SCCCOc3cc(C)c(Cl)c(C)c3)n3[nH]c(=O)cc3n2)c1 | inactive: -0.815%
CSc1ncc(C(=O)NCc2ccc(F)cc2)c(-c2ccccc2)n1 | inactive: -0.0568%
CCCCN(CC)CCCNC(=O)Cn1nc(CC)n2c(cc3sccc32)c1=O | inactive: 4.59%
COc1ccc2c(c1)c1c(c(=O)n(CCc3ccccc3)c(=O)n1Cc1cccc(C)c1)n2C | inactive: -13.2%
COC(=O)CC(=O)CSc1nc2cc(C(=O)NC(C)C)ccc2c(=O)n1CCc1ccccc1 | inactive: -20.1%
O=C(Cc1ccc(-c2ccccc2)cc1)NCCS(=O)(=O)N1CCN(c2cccc(Cl)c2)CC1 | inactive: -28.4%
CCN(C(=O)CSc1nnc(-c2cc3occc3n2C)n1-c1ccccc1C)c1ccccc1 | inactive: -12.2%
O=C(CN1C(=O)COc2ccc(S(=O)(=O)N3CCOCC3)cc21)NCc1ccc(Cl)cc1 | inactive: -5.74%
CCCCCCCCCCCCCCCC(=O)OC[C@@H](NC(=O)C(Cl)Cl)[C@H](O)c1ccc([N+](=O)[O-])cc1 | inactive: 4.18%
CC1c2ccccc2CN1NC(=O)c1ccc(Cl)c(S(N)(=O)=O)c1 (centres undefined) | inactive: -12.8%
CCOc1ccc(Nc2sc(C(=O)c3ccc(F)cc3)c(N)c2S(=O)(=O)c2ccc(C)cc2)cc1 | inactive: -7.5%
Cc1oc2ncn(CC(C)C)c(=O)c2c1C(=O)NCc1cccc(Cl)c1 | inactive: -17.4%
CC(C)Oc1ccc(CNC(=O)c2cc3cccc4c3n2CC(C)S4)cc1 (centres undefined) | inactive: -12.1%
CCc1ccc(-c2nc3c(c(SCc4ccccc4)n2)Cc2c(CO)cnc(C)c2O3)cc1 | inactive: -16%
Cc1ccc(Cn2c(C(=O)Nc3ccc(Cl)cc3)cc3sccc32)cc1 | inactive: 3.6%
COc1cc(Cl)c(C)cc1NC(=O)CNC(=O)Cn1ccc2ccccc2c1=O | inactive: -6.97%

Compound | activity change, negative = inhibition
Cc1ccc(C)c(NC(=O)CSc2nc(=O)n(CCN3CCOCC3)c3c2CCC3)c1 | inactive: -4.66%
COc1cc2c(cc1OC)C(COc1ccc3c(C)cc(=O)oc3c1)N(C(=O)c1ccc(C)cc1)CC2 (centres undefined) | inactive: -28.8%
CC(C)Cn1cc(NC(=O)NCc2ccc(Cl)cc2)c2ccccc2c1=O | inactive: -6.46%
CCC(=O)N1c2ccccc2CC1C(=O)NCCCN1CCN(c2cccc(Cl)c2)CC1 (centres undefined) | inactive: 1.89%
Cc1c(C(=O)NCc2ccccc2Cl)sc2nc3n(c(=O)c12)CCCC3 | inactive: 28.2%
COc1ccc(Br)c2c1-c1nc(NC(=O)c3ccc(F)cc3)sc1C2 | inactive: -4.14%
Cc1ccc2c(c1)C(=O)OC(C(=O)Nc1ccc(C(=O)O)cc1)C2 (centres undefined) | inactive: 4.63%
O=C(Nc1ccc(Cl)cc1)c1ccc2oc(=O)n(Cc3ccccc3)c2c1 | inactive: -29%
COc1ccc(C(=O)CN2CCN(S(=O)(=O)c3ccc(F)cc3)CC2)cc1 | inactive: -2.81%
COCCCNc1nc2c(c(=O)n(Cc3ccccc3)c(=O)n2C)n1C | inactive: -5.93%
COc1ccc(-c2cn3c(n2)sc2cc(C(=O)Nc4ccc(F)cc4)ccc23)cc1 | inactive: 17.2%
CC(=O)N1CCC2(CC1)OC(=O)C(C)=C2C(=O)NCc1ccccc1Cl | inactive: 7.78%
CC(=O)OC1=C(C(C)=O)N(Cc2ccccc2)S(=O)(=O)c2ccccc21 | inactive: -11.1%
Cc1cc(NC(=O)c2ccc(F)cc2)ccc1-c1cc2ccccc2oc1=O | inactive: -21.2%
Cc1ccc(Cl)cc1NC(=O)c1csnn1 | inactive: -11%
CC1CCN(C(=O)CCS(=O)(=O)c2cc3c(cc2Cl)NC(=O)CO3)CC1 | inactive: -6%
CCOC(=O)c1nnn(CC(=O)NC(=O)Nc2ccccc2F)c1C(=O)OCC | inactive: -42.2%
CCCCSc1nnc2[nH]c(=O)cc(C)n12 | inactive: -12.9%
O=C(c1cc(-c2ccc(Br)cc2)n[nH]1)N1CCN(S(=O)(=O)c2ccc(Br)s2)CC1 | inactive: -29.3%
CCOc1ccc(Nc2nc(N)c(C(=O)c3ccccc3Cl)s2)cc1 | inactive: -28.7%
Cc1cccc(CC(=O)NC2CC(=O)N(c3ccc4c(c3)OCCO4)C2)c1 (centres undefined) | inactive: 1.13%
Cc1ccccc1CSc1ncc(Cl)c(C(=O)NCc2ccccc2)n1 | inactive: -6.83%
CCC(=O)N1CCc2cc(Br)cc(S(=O)(=O)CCC(=O)Nc3ccc(CC)cc3)c21 | inactive: 2.86%
Clc1ccc(Cn2c(CN3CCCC3)nc3ccccc32)cc1 | inactive: -3.19%
